Results taken from a compilation of properties of binary mixtures (doi:10.1021/jp3100377).
The densities may have been worked out from excess volumes.

Assay: xn = mol fraction of the nth substance listed
Conditions: 100 kPa

CC(=O)[O-].CC[n+]1ccn(C)c1 + O
Conditions	mass density [kg/m3]
293.12 K, x2 = 0.404	1109.5
293.14 K, x2 = 0.6028	1111.7
293.15 K, x2 = 0.802	1103
293.19 K, x2 = 0.2	1106.8
303.14 K, x2 = 0.404	1103.5
303.19 K, x2 = 0	1097.2
303.2 K, x2 = 0.6028	1105.6
303.22 K, x2 = 0.802	1097.2
312.97 K, x2 = 0.2	1094.6
313.12 K, x2 = 0.802	1091.1
313.17 K, x2 = 0	1091.1
313.26 K, x2 = 0.6028	1099.5
323.19 K, x2 = 0.2	1088.7
323.25 K, x2 = 0.404	1091.3
333 K, x2 = 0.404	1085.5
333.12 K, x2 = 0.2	1082.9
333.15 K, x2 = 0	1078.7
343.11 K, x2 = 0.802	1070.9
343.13 K, x2 = 0.2	1077.1
343.19 K, x2 = 0.404	1079.8
343.2 K, x2 = 0.6028	1081
353.13 K, x2 = 0.6028	1075.4
353.16 K, x2 = 0	1067.2
353.17 K, x2 = 0.2	1071.7
353.23 K, x2 = 0.404	1074
